PubChem BioAssay AID624173 (National Center for Advancing Translational Sciences (NCATS), 2012)
Among all 410,000 compounds or so, about 490 (0.12%) were called active. Inconclusive means that the source gave no clear call. Such entries were picked first, then a sample of the others. The call rests on the fitted dose curve; in most records, active means well fitted inhibition curve with a large enough effect; inconclusive means small, poorly fitted or top-dose-only effect; inactive means flat fitted curve, though single readings scatter. A potency beside an inconclusive call is a rough fit, not a confirmed value. Where a structure was tested more than once in an assay, its records may differ in their call.

Biological target: pyruvate kinase (Trypanosoma brucei) (UniProt Q57TT1)
Experiment: qHTS of Trypanosoma Brucei Inhibitors; further: nearly all actives have a fitted effect of over 50% in size
Details: TbPYK enzyme, Kinase-Glo Plus ATP luminescence, 45 min; series mostly up to 76.8 µM
How it was run: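 ADP (130 uM final) triggers the TbPYK reaction after compound addition; incubation is 45 min at room temperature. Kinase-Glo Plus is then added and luminescence imaged. Normalized data are fitted to concentration-effect curves.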
Potency means the concentration at half of the fitted maximal effect; tags describe the fitted curve by direction and shape.

| SMILES | Potency |
| --- | --- |
| COC(=O)c1ccc(C2Nc3ccc(/C(C)=N/NC(=O)C(OC)c4ccccc4)cc3C3C=CCC32)cc1 (centres undefined) | inconclusive: 22.4 µM [inhibitor, partial curve] |
| O=C(O)CN1C(=O)/C(=C/c2ccc(N3CCCCC3)o2)SC1=S | inconclusive: 50.1 µM [inhibitor, single point] |
| COc1ccccc1-c1noc2c1C(=O)N(Cc1cn(C3CCCC3)nn1)CC2 | inactive |
| CCOC(=O)c1ccccc1NC(=O)CSc1nccn1Cc1ccco1 | inactive |
| S=c1[nH]nc(-c2cc(-c3ccccn3)nc3ccccc23)o1 | inconclusive: 17.8 µM [inhibitor, partial curve, poor fit] |
| O=C1S/C(=C/c2ccc(N3CCOCC3)o2)C(=O)N1Cc1ccc(F)cc1 | inconclusive: 44.7 µM [inhibitor, single point] |
| O=C(NCC(c1ccco1)S(=O)(=O)c1cccs1)c1ccccc1F (centres undefined) | inactive |
| NS(=O)(=O)c1ccc(NC(=S)N2CCN(c3cccc(Cl)c3)CC2)cc1 | inconclusive: 17.8 µM [inhibitor, partial curve] |
| COc1ccc([C@H]2[C@H](C(=O)OC(C)(C)C)N3N=Cc4ccccc4C3C23C(=O)c2ccccc2C3=O)cc1OC (some centres undefined) | inactive |
| O=C(NCCO)c1nc(C(=O)c2ccccc2)c2ccccc2n1 | inactive |
| Cc1ccc2c(c1)C(c1ccccc1)N(C(=O)Cc1ccc(F)cc1)CC(=O)N2 (centres undefined) | inconclusive: 28.2 µM [inhibitor, single point] |
| Fc1ccc(CSc2nc3ccccc3[nH]2)c2ccccc12 | inactive |
| Fc1ccc(-n2c(-c3ccc4c(c3)OCO4)n[nH]c2=S)cc1Cl | active: 3.98 µM |
| Cc1ccc(C(=S)N2CCN(Cc3ccccc3)CC2)s1 | inconclusive: 17.8 µM [inhibitor, partial curve] |
| CCCCOc1cccc(C(=O)N(Cc2ccc(C)o2)c2ccccn2)c1 | inactive |
| Cc1ccc(OCCn2c(=S)[nH]c3c(N)ncnc32)cc1 | inconclusive: 7.08 µM [inhibitor, full curve] |
| Oc1ccc(/C=N/n2cc(-c3ccccc3)[nH]c2=S)cc1 | inconclusive: 2.51 µM [inhibitor, full curve, poor fit] |
| O=C(CSc1cccc2cccnc12)N1CCCC1 | inconclusive: 35.5 µM [inhibitor, partial curve, poor fit] |
| O=C(CCCc1ccccc1)Nc1ccc(Br)cc1F | inconclusive: 50.1 µM [inhibitor, single point] |
| Cc1ccc(Nc2nnc(SCc3cc(=O)n4ccsc4n3)s2)c(C)c1 | inconclusive: 50.1 µM [inhibitor, single point] |
| S=c1[nH]nc(CSCc2ccccc2Cl)n1C1CCCCC1 | inconclusive: 6.31 µM [inhibitor, partial curve] |
| CC(=O)Nc1ccc(/C=N/Nc2nc3ccccc3[nH]2)cc1 | inactive |
| Cc1n[nH]c(=S)n1-c1cccc(Cl)c1 | inconclusive: 12.6 µM [inhibitor, partial curve, poor fit] |

| SMILES | Potency |
| --- | --- |
| Cc1ccc(OCCn2cc(C(=S)N3CCCC3)c3ccccc32)cc1C | inconclusive: 22.4 µM [inhibitor, partial curve, poor fit] |
| Cc1cc(NC(=O)Nc2nc3c(s2)CCCCCC3)ccc1Br | inactive |
| CCOC(=O)c1sc2nc(-c3ccco3)c3c(c2c1N)CC(C)(C)OC3 | inconclusive: 14.1 µM [inhibitor, partial curve, poor fit] |
| Cc1ccc(NC(=O)c2cc3ccccc3oc2=N)cc1 | inactive |
| COc1ccccc1N1C(=O)NC(=O)/C(=C/c2ccc([N+](=O)[O-])s2)C1=O | inconclusive: 11.2 µM [inhibitor, partial curve, poor fit] |
| COc1ccc2nc3oc(C(=O)NCc4ccccc4OC)cc3cc2c1 | inconclusive: 31.6 µM [inhibitor, single point] |
| Cc1c(Nc2cc(Cl)c3nonc3c2[N+](=O)[O-])c(=O)n(-c2ccccc2)n1C | inconclusive: 50.1 µM [inhibitor, single point] |
| Nc1ccccc1Sc1nc2ccccc2[nH]1 | inconclusive: 22.4 µM [inhibitor, partial curve] |
| COc1ccc(N2CC(NC(=O)COc3ccccc3C)CC2=O)cc1OC (centres undefined) | inconclusive: 6.31 µM [inhibitor, partial curve, poor fit] |
| Cc1c(Cl)c(-c2n[nH]c(=S)n2-c2ccc(F)cc2)nn1C | active: 3.98 µM |
| O=c1c2ccccc2nc(/C=C/c2ccc([N+](=O)[O-])o2)n1-c1ccc(O)cc1 | inactive |
| O=S(=O)([O-])CCC[N+]1(CC#Cc2ccccc2)CCCCC1 | inconclusive: 50.1 µM [inhibitor, single point] |
| CCOc1ccc(CN(C)c2nc(-c3cccnc3)nc3ccccc23)cc1OC | inactive |
| O=C(c1ccccc1)[C@@H]1[C@@H]2C(=O)N(c3ccc(F)cc3)C(=O)[C@@H]2C2CCCN21 (some centres undefined) | inconclusive: 35.5 µM [inhibitor, single point] |
| NC(=O)CSc1nnc(-c2cccc(S(=O)(=O)N3CCOCC3)c2)n1C1CCCCCC1 | inconclusive: 31.6 µM [inhibitor, partial curve, poor fit] |
| O=C(O)CSc1nnc(-c2ccc(Cl)cc2Cl)n1-c1ccc(Cl)cc1 | inconclusive: 11.2 µM [inhibitor, partial curve, poor fit] |
| Cc1ccc(NC(=O)CCC(=O)c2cccs2)cc1F | inactive |
| Oc1ccc(C(O)CNCCCCCCNCC(O)c2ccc(O)c(O)c2)cc1O (centres undefined) | inactive |
| CC(C)[C@H](NC(N)=O)C(=O)Nc1cccc(S(=O)(=O)N2CCOCC2)c1 | inconclusive: 31.6 µM [inhibitor, single point] |
| c1ccc(-c2csc(Nc3ccc4c(c3)OCO4)n2)cc1 | inactive |
| Cn1nc(-c2ccccc2)c(C(=O)NC(C(=O)O)c2ccccc2)c1Cl (centres undefined) | inconclusive: 31.6 µM [inhibitor, single point] |
| Cc1cccc(-n2c(-c3ccncc3)n[nH]c2=S)c1C | inconclusive: 20 µM [inhibitor, partial curve, poor fit] |
| CNC(=S)N1CCC(NC(=O)C23CC4CC(CC(C4)C2)C3)CC1 | inconclusive: 50.1 µM [inhibitor, single point] |

| SMILES | Potency |
| --- | --- |
| COc1ccc(NC(=O)c2ccc3c(c2)nnn3C2CCCC2)cc1Cl | inactive |
| O=C(c1ccccc1)c1ccc(Oc2ccc([N+](=O)[O-])cc2[N+](=O)[O-])cc1 | inactive |
| O=C(Nc1cccc(S(=O)(=O)NC2=NCCCCC2)c1)c1cc(-c2ccncc2)nc2ccccc12 | inactive |
| S=C1SCN(Cc2ccccc2)CN1Cc1ccco1 | inconclusive: 17.8 µM [inhibitor, partial curve] |
| Clc1ccc(N=c2ssnc2Cl)nc1 | inconclusive: 28.2 µM [inhibitor, partial curve, poor fit] |
| COc1cccc(C(=O)O/N=C(\N)c2ccccn2)c1 | inconclusive: 14.1 µM [inhibitor, partial curve, poor fit] |
| Oc1ccc(CCc2n[nH]c(=S)n2-c2ccc(F)cc2)cc1 | inconclusive: 5.62 µM [inhibitor, partial curve, poor fit] |
| O=C(O)c1cc(-c2ccco2)nc2ccc(Br)cc12 | active: 17.8 µM |
| COc1cc(C(=S)N(C)C)ccc1O | inconclusive: 5.01 µM [inhibitor, partial curve, poor fit] |
| CCOc1ccc(-c2ccc(SCC)nn2)cc1 | inconclusive: 35.5 µM [inhibitor, partial curve, poor fit] |
| CC(C)Cn1c(-c2ccc(Br)o2)n[nH]c1=S | active: 3.98 µM |
| Cc1cccc(N2CCN(S(=O)(=O)c3ccc4c(c3)CC(C)N4C(=O)C3CC3)CC2)c1C (centres undefined) | inactive |
| CCN(CC)S(=O)(=O)c1ccc(C(=O)NCc2cccs2)cc1 | inconclusive: 50.1 µM [inhibitor, single point] |
| Cn1c(C23CC4CC(CC(C4)C2)C3)n[nH]c1=S | inconclusive: 28.2 µM [inhibitor, partial curve] |
| O=C(Nc1ccc2nc(-c3ccco3)c(-c3ccco3)nc2c1)N1CCCCCC1 | inconclusive: 12.6 µM [inhibitor, partial curve] |
| O=C(O)CCC(=O)NCCC1=c2ccccc2=N/C1=C\c1c(O)n(Cc2ccc(F)cc2)c(=S)[nH]c1=O | inconclusive: 14.1 µM [inhibitor, partial curve, poor fit] |
| CCn1c(-c2ccc(C(C)(C)C)cc2)n[nH]c1=S | inconclusive: 11.2 µM [inhibitor, partial curve, poor fit] |
| Cc1ccc(C)c(NC(=S)N/N=C/C(C)c2ccccc2)c1 (centres undefined) | inconclusive: 6.31 µM [inhibitor, partial curve, poor fit] |
| COc1cc(/C=C2\SC(=Nc3ccc(Cl)c(C(=O)O)c3)NC2=O)c(Br)c(Br)c1O | inconclusive: 39.8 µM [inhibitor, single point] |
| Oc1ccc(C=NNC(=S)Nc2ccccc2)nc1 | inconclusive: 31.6 µM [inhibitor, partial curve, poor fit] |
| COc1cccc(NC(=O)C2C3C=CC(O3)C2C(=O)O)c1 (centres undefined) | inactive |
| COc1ccc(NC2CC(=O)N(c3cccc([N+](=O)[O-])c3)C2=O)cc1 (centres undefined) | inactive |
| Cc1ccc2nc(Cl)c(CN(C(=O)c3cnccn3)C3CCCCC3)cc2c1 | inconclusive: 31.6 µM [inhibitor, single point] |
